In all, about 48,000 compounds went through this assay and about 1,200 (2.5%) were called active. Inconclusive results (about 2%) are left out.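 The calls were made as follows: active = activation of at least 60% and not above a set upper limit (about 1 call in 100 departs from these limits); inconclusive = activation of 40% to 60%, or above that upper limit; inactive = activation under 40%.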 The list shows a part of the results.

In this test the target is Probable G-protein coupled receptor 32 (Homo sapiens) (UniProt O75388). Briefly: qHTS for Agonists of Human Resolvin D1 Receptor DRV1. Conditions: CHO-K1 GPR32 beta-arrestin PathHunter luminescence, 90 min; at 76.9 µM; active compounds read high; zero percent set by DMSO-only wells. An excerpt: Endogenous resolution of inflammation is known to be transduced through various GPCRs and their natural mediators of lipid nature. Resolvin D1 (RvD1) is one of the active players in resolution of acute inflammation through regulation of anti-inflammatory pathways; it is known to enhance phagocytosis of human macrophages, limits neutrophils infiltration, etc. […] The search for GPR32-activating small molecules with anti-inflammatory effects similar to its natural omega-3 derivative ligand in order to use them as research tools for further studies of inflammation and its resolution was the goal of this screening project. For primary screening assay, we used CHO-K1 GPR32 beta-arrestin cell line (DiscoveRx, #93-0321C2A) and the PathHunter(R) beta-Arrestin Assay (DiscoveRx) which measures recruitment of beta-arrestin to the GPR32 and generates chemiluminescent signal. These engineered cells stably transfected with GPR32 co-express GPR32-fused small 42-amino acid fragment of beta-Gal called ProLinktrade mark, and […] -tagged beta-Arrestin fusion protein. When GPR32 is activated by a ligand, it stimulates binding of beta -Arrestin to ProLink-tagged GPR32, and two parts of beta-Gal complement forming a functional enzyme. Upon substrate (PathHunter(R) Detection reagent) addition, beta-Gal hydrolyzes it and generates a chemiluminescent signal.
Sequence of UniProt O75388 (O75388 whole entry, looked up): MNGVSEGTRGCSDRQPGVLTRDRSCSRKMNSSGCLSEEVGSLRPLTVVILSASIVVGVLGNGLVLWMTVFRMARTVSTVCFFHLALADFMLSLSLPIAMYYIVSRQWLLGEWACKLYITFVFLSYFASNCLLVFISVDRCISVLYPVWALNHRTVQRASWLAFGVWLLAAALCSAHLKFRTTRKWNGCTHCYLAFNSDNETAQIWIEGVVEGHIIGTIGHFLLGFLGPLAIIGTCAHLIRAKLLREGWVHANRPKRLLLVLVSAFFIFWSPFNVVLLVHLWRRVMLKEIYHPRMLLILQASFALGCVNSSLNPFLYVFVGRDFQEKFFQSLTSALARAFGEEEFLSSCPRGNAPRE
The cells were thawed and plated in thawing media containing F-12 HAM (Invitrogen, #11765-054), 10% FBS (Invitrogen, #10082), 1x Glutamine, and 1x Pen/Strep onto the 175-mm flask for 24 hours. Then, thawing media was replaced with Growth media which contains 800microg/mL Geneticin (Invitrogen, #10131) and 300microg/mL Hygromycin B (Invitrogen, #10687) in addition to described above. For the assay, the cells were harvested at ~80% confluent stage with Cell Dissociation buffer (Gibco, #13151), and seeded at 2,500 cells/ 3microL/well in assay media (PathHunter(R) Cell Plating Reagent, DiscoverX, #93-0563R1B) using MultiDrop Combi dispenser (Thermo Scientific, Logan, UT) onto white solid bottom tissue culture-treated 1536-well plates (Greiner # 789173-F) and allowed to attach overnight at 37 degrees C, 95% humidity, 5% CO2, . Next, 23nL/well of compound solutions in DMSO were added with a Pin Tool (Kalypsis, San Diego, CA) to the assay plates. As the basal control (EC0), 23 nL/well of DMSO was used on each plate. The cells were incubated in the presence of compounds or DMSO for 90 minutes at 37 degrees C, 5% CO2. Subsequently, 1.5microL/well of PathHunter(R) Detection Reagent prepared per the manufacturer's instructions was added to the assay plates with BioRAPTR FRDtrade mark dispenser (Beckman Coulter, San Francisco, CA) and incubated for 1 hour at ambient temperature prior to the measurement of the luminescent signal on ViewLux(R) uHTS Microplate Imager (Perkin Elmer, Waltham, MA).
Turning to `COc1ccc(CNC(=O)Cn2nnc(-c3ccc(C(F)(F)F)cc3)n2)cc1`, the activation was inactive: 4.65%.
To `CCOC(=O)c1ccc(N2C(=O)c3n[nH]c(C)c3C2c2cccc(Br)c2)cc1` (centres undefined) belongs inactive: -23.2%; to `O=c1cc(-c2ccccc2)n2c(SCc3ccc(Cl)cc3)nnc2[nH]1`, inactive: 11.8%; to `COc1ccc(C(=O)c2cn(Cc3ccccc3F)c3cc4c(cc3c2=O)OCO4)cc1`, inactive: 7.91%.
The same measure for `COc1ccccc1C(=O)Nc1ccc2oc(-c3cccc(Cl)c3Cl)nc2c1`: inactive: -10%; for `CC(C)C(=O)NCC(c1ccc2c(c1)OCO2)N1CCN(c2ccccc2F)CC1` (centres undefined): inactive: -12.8%.
Turning to `COc1ccc(-n2c3c(cc(-c4nc(-c5ccc(C)cc5)cs4)c2=O)C(=O)CC(C)(C)C3)cc1`, the activation is inactive: 20.3%.
To `CC1CCCN(C(=O)c2cc3c(=O)n(C)c4ccccc4c3s2)C1` (centres undefined) belongs inactive: -0.534%; to `Cc1ccc2nc(N3CCC(C(=O)N4CCN(c5cccc(C)c5C)CC4)CC3)[nH]c2c1`, inactive: 24%; to `Cc1sc2c(c1C)c(=O)n(-c1ccc(Cl)cc1)c(=O)n2Cc1cc(=O)n2ccccc2n1`, inactive: -0.232%.
The same measure for `O=c1[nH]cnc2c1ncn2[C@@H]1O[C@H](CO)[C@@H](O)[C@H]1O`: inactive: -16.6%.
As to `CCOc1ccc(C(=O)NCc2nc3cccnc3n2Cc2ccc(F)cc2)cc1OCC`, the activation was inactive: -14%.
Turning to `COc1ccc(C2C(C(N)=O)=C(C)Nc3nc(SCc4ccccc4Cl)nn32)cc1OC` (centres undefined), the activation was inactive: 16.7%.
The same measure for `CCOC(=O)c1ccccc1NC(=O)CSc1nc2ccncc2[nH]1`: inactive: 3.74%; for `O=C(NCc1ccco1)c1ccc(Cn2c(SCc3ccc(F)cc3)nc3cccnc32)cc1`: inactive: -21.9%; for `O=C(CCS(=O)(=O)c1cccc2nonc12)Nc1c(F)cccc1F`: inactive: 6.83%.
Take `CC1CCc2c(sc3nc(-c4cc5cc(Br)ccc5oc4=O)[nH]c(=O)c23)C1` (centres undefined): the activation was inactive: -4.65%.
On to `Cc1cc(C)cc(NC(=O)N2CCC3(CC2)Oc2ccccc2C(=O)N3Cc2ccccc2F)c1`, for which the activation was inactive: -15.1%.
Turning to `COc1cccc(N2CCN(C(=O)c3cccc(-n4c(C)nc5cccnc54)c3)CC2)c1`, the activation is inactive: 40.2%.
With `CCOC(=O)c1ccc(CN(Cc2ccc(F)cc2)S(=O)(=O)c2ccc(F)c(C(=O)Nc3ccc(Cl)cc3F)c2)cc1`, the activation is inactive: -10.8%.
To `CCOc1ccc(NC(=O)c2c(NCc3cccnc3)sc3c2CCCC3)cc1` belongs inactive: -3.66%; to `COc1ccc(Br)c(C(=O)Nc2cc3c(cc2N2CCOCC2)n(C)c(=O)n3C)c1`, inactive: 0.0263%; to `C=Cc1ccc(Cn2c(C(=O)O)c(CNC3CCCCC3)c3ccc(C)cc32)cc1`, inactive: -14.3%.
Take `COc1ccc(CCn2c(=O)c3cccnc3n(CC(=O)Nc3ccc(C)c(F)c3)c2=O)cc1OC`: the activation was inactive: 5.73%.
Take `COc1ccc(-c2nnc(SCC(=O)Nc3cccc(C(F)(F)F)c3)nc2-c2ccc(OC)cc2)cc1`: the activation was inactive: -10.9%.
Turning to `CN1C(=O)Cc2cc(S(=O)(=O)N3CCN(c4ccc(Cl)cc4)CC3)ccc21`, the activation is inactive: -20.4%.
The same measure for `CCOC(=O)c1[nH]c2c(c1Cc1ccccc1C)C(=O)CC(c1cc(OC)ccc1OC)C2` (centres undefined): inactive: -20.1%; for `CC(C)COc1ccc(C(=O)Nc2cc3nn(-c4ccccc4)nc3cc2Cl)cc1`: inactive: 0.579%; for `CCc1nn2c(=O)cc(COc3ccc(/C=C(\C#N)C(=O)Nc4ccc(F)cc4)cc3OC)nc2s1`: inactive: -4.63%.
The same measure for `COc1cccc(Cn2c(CNS(=O)(=O)c3ccc(F)c(Cl)c3)nc3cccnc32)c1`: inactive: -18.9%.
To `O=C(COc1ccccc1)NCCc1csc(-c2ccc(Cl)cc2)n1` belongs active: 95%.
With `O=C(c1ccc2c(c1)OCCO2)N(Cc1cccnc1)c1nc2c(Cl)cccc2s1`, the activation was inactive: -26.6%.
To `CCOc1ccc(OCC)c(NC(=O)C2CCN(S(=O)(=O)c3c(C)noc3/C=C/c3ccccc3F)CC2)c1` belongs inactive: -4.29%.
The same measure for `O=S(=O)(NCC(c1cccs1)S(=O)(=O)c1ccccc1)c1ccc(F)cc1` (centres undefined): inactive: -10.1%; for `CCc1ccc(NC(=O)Cn2c(=O)n(CCC(=O)N3CCc4ccccc4C3)c(=O)c3ccccc32)cc1`: inactive: -1.21%; for `Cc1ccccc1-c1nn2c(=O)cc(CN3CCN(C(=O)/C=C/c4ccccc4)CC3)nc2s1`: inactive: 31.9%.
The same measure for `CCOc1ccccc1CNC(=O)c1cc(-c2ccc(Cl)s2)nc2ccccc12`: inactive: -15.4%.
With `CCn1c2ccccc2c2nnc(SCC(=O)Nc3ccccc3OC)nc21`, the activation was inactive: -5.24%.
To `Cc1ccccc1S(=O)Cc1ccc(C(=O)N2CCN(c3cccc(C)c3C)CC2)o1` (centres undefined) belongs inactive: -1.26%.
To `Cc1ccc(-c2c(CN3CCN(c4cccc(C)c4)C(C)C3)csc2C)cc1` (centres undefined) belongs inactive: -33.2%.
The same measure for `CC(C)CC(=O)N1c2nc(C(C)C)nn2C2(CCCCC2)[C@@H]2CCCC[C@@H]21`: inactive: -9.11%; for `Cc1ccc2onc(CC(=O)N3CCN(c4ccc(F)cc4)CC3)c2c1`: inactive: -26%; for `CCN(CC)CCNC(=O)c1c(C)oc2ncnc(N3CCOCC3)c12`: inactive: -7.01%.
Turning to `Cc1cccc(C)c1OCC(=O)Nc1ncn[nH]1`, the activation was inactive: 36.6%.
In the case of `CCOc1ccc(CCNC(=O)c2cnc3sc(N(CC)CC)nn3c2=O)cc1OCC`, the activation is inactive: -5.84%.
To `COC(=O)/C=C\C(=O)OC` belongs inactive: -7.78%; to `COC(=O)c1c(NC(=O)c2cc3ccccc3c(=O)o2)sc2c1CCCC2`, inactive: 7.36%.
The same measure for `CN(CCCNC(=O)c1cc2c(Cl)nc3ccccc3c2s1)Cc1ccccc1`: inactive: -13.9%; for `Cc1c(Cl)cccc1NC(=O)CSc1ncc2c(n1)-c1ccccc1N(C)S2(=O)=O`: inactive: -11.7%; for `Cc1cc(C)c(NC(=O)Cn2cc(S(=O)(=O)Cc3ccccc3F)c3ccccc32)c(C)c1`: inactive: -16.5%.
The same measure for `COc1ccc(OC)c(CNS(=O)(=O)c2ccc3c(c2)CCCN3C(C)=O)c1`: inactive: 5.22%.
With `COc1ccc(NC(=O)Cn2nnc(C(=O)NCCc3ccccc3)c2N)cc1`, the activation was inactive: 26.2%.
To `CC(=O)c1cccc(NC(=O)C(C)n2c(=O)cc(C)c3c(C)nn(-c4ccccc4)c32)c1` (centres undefined) belongs inactive: -11.5%.
The same measure for `COc1ccc(CCNC(=O)c2ccc(Nc3nc4ccccc4n4nnnc34)cc2)cc1OC`: inactive: 43.7%; for `COc1ccccc1NC(=O)N(Cc1nnc2n1CCCCC2)c1ccc(F)cc1`: inactive: 1.56%; for `Cc1cccc(N(CC(O)Cn2c3ccccc3c3ccccc32)S(=O)(=O)c2ccc(F)cc2)c1` (centres undefined): inactive: 24.1%.
In the case of `O=C(NCCc1ccccc1)c1ccc2c(c1)N(Cc1ccc(F)cc1)C(=O)c1ccccc1S2(=O)=O`, the activation is inactive: -31.8%.
To `Cc1noc(Cn2c(=O)c3cc4c(cc3n(CC(=O)Nc3ccc(C(C)C)cc3)c2=O)OCO4)n1` belongs inactive: -18%; to `CC(C)NC(=O)Cc1csc2nc(-c3ccccc3)cn12`, inactive: 7.83%; to `CCc1ccccc1N1CC(c2nc3ccccc3n2CCCCOc2ccccc2OC)CC1=O` (centres undefined), inactive: 31.1%.
On to `O=C1CCc2cc(S(=O)(=O)NC(C(=O)Nc3ccc(F)cc3)c3ccccc3)ccc2N1` (centres undefined), for which the activation is inactive: 22.1%.
The same measure for `CNS(=O)(=O)c1ccc(NC(=O)c2nc3nc(C)cc(C(F)F)n3n2)cc1`: inactive: -6.65%.
The same measure for `COc1cccc(-c2cc(C(F)(F)F)n3nc(-c4ccc(C)cc4)cc3n2)c1`: inactive: 8.89%; for `CCN(c1ccccc1)S(=O)(=O)c1ccc(NC(=O)c2cc(=O)c3c(C)cc(C)cc3o2)cc1`: inactive: -11.9%; for `Cc1nc2nc(CNC(=O)c3cccc(F)c3)nn2c(C)c1CCC(=O)Nc1ccc(F)cc1`: inactive: 16.6%.
To `COc1cc2c(cc1OC)C(COc1ccc(F)cc1)N(C(=O)C(C)C)CC2` (centres undefined) belongs inactive: 31.6%; to `O=c1ccc2ccccc2o1`, inactive: 2.7%.
As for `O=c1n(Cc2ccccc2)nc2n1-c1ccccc1OC2`, the activation was inactive: 4.3%.
The same measure for `CC(C)c1cnc2c(c1SCc1ccc([N+](=O)[O-])cc1)c(=O)n(C)c(=O)n2C`: inactive: -13.7%; for `CCOc1ccc(NS(=O)(=O)c2ccc3[nH]cc(C(=O)N4CCCC4)c(=O)c3c2)cc1`: inactive: -4.79%.
To `Cc1cc(O)c2ccccc2c1O` belongs active: 80.6%; to `COc1ccc(S(=O)(=O)N(Cc2nc(-c3ccccc3)no2)C2CCCCC2)cc1`, inactive: -25%.
Regarding `Cc1ccccc1C(=O)NCC(c1ccc(N(C)C)cc1)N1CCCC1` (centres undefined), the activation is inactive: -11.3%.
The same measure for `Fc1ccc(Nc2nc(SCc3ccc(Cl)cc3)nc3ccccc23)cc1`: inactive: -5.23%; for `CNC(=O)C1CCC(Cn2c(=O)c3sccc3n(CC(=O)N3CCCCC3C)c2=O)CC1` (centres undefined): inactive: -8.76%; for `Cc1cccc(-c2noc(-c3cccnc3NCc3ccccc3Cl)n2)c1`: inactive: -22.6%.
The same measure for `O=S(=O)(NCC(c1ccco1)S(=O)(=O)c1ccccc1)c1cc(F)ccc1F` (centres undefined): inactive: -12.9%.
In the case of `O=C(CCS(=O)(=O)c1ccc(Br)s1)Nc1c(F)cccc1F`, the activation was inactive: 7.25%.
To `COc1cc(C2CC(=O)N(c3ccc(C)c(Cl)c3)C3=C2C(=O)OC3)cc(OC)c1OC` (centres undefined) belongs inactive: 14.1%; to `COc1ccc(-c2cc(C(F)(F)F)n3nc(C(=O)OC(C)C)cc3n2)cc1`, inactive: -15.1%.
The same measure for `Cc1cc2c(n1-c1ccc(C(=O)NCCc3ccc(Cl)cc3)cc1)CCC(C)C2` (centres undefined): inactive: -12.4%; for `CCc1ccc2oc(C(=O)Nc3nc(-c4ccc(F)cc4)ns3)c(C)c2c1`: inactive: -2.05%.
Turning to `CCOC(=O)c1cccc(NC(=O)CC2C(=O)N(c3ccccc3)C(=O)N2Cc2ccco2)c1` (centres undefined), the activation was inactive: -15.3%.
As to `Cc1c(C2=CCN(S(=O)(=O)c3ccc(Cl)cc3)CC2)c2ccccc2n1CC(=O)N1CCCC1`, the activation was inactive: -13.4%.
